# Reference: PubChem BioAssay AID504332 (National Center for Advancing Translational Sciences (NCATS), 2011)
# The campaign covered roughly 350,000 compounds. About 31,000 (8.9%) were called active. The inconclusive results got no clear call from the source; some entries with a clear call stand among them for comparison. The call rests on the fitted dose curve; in most records, active means well fitted inhibition curve with a large enough effect; inconclusive means small, poorly fitted or top-dose-only effect; inactive means no such curve, though single readings can be large or run the other way. Potencies of inconclusive entries are doubtful fits and often do not repeat.
# Target: Histone-lysine N-methyltransferase EHMT2 (Homo sapiens) (UniProt Q96KQ7)
# Chain of UniProt Q96KQ7 (Q96KQ7 whole entry, looked up): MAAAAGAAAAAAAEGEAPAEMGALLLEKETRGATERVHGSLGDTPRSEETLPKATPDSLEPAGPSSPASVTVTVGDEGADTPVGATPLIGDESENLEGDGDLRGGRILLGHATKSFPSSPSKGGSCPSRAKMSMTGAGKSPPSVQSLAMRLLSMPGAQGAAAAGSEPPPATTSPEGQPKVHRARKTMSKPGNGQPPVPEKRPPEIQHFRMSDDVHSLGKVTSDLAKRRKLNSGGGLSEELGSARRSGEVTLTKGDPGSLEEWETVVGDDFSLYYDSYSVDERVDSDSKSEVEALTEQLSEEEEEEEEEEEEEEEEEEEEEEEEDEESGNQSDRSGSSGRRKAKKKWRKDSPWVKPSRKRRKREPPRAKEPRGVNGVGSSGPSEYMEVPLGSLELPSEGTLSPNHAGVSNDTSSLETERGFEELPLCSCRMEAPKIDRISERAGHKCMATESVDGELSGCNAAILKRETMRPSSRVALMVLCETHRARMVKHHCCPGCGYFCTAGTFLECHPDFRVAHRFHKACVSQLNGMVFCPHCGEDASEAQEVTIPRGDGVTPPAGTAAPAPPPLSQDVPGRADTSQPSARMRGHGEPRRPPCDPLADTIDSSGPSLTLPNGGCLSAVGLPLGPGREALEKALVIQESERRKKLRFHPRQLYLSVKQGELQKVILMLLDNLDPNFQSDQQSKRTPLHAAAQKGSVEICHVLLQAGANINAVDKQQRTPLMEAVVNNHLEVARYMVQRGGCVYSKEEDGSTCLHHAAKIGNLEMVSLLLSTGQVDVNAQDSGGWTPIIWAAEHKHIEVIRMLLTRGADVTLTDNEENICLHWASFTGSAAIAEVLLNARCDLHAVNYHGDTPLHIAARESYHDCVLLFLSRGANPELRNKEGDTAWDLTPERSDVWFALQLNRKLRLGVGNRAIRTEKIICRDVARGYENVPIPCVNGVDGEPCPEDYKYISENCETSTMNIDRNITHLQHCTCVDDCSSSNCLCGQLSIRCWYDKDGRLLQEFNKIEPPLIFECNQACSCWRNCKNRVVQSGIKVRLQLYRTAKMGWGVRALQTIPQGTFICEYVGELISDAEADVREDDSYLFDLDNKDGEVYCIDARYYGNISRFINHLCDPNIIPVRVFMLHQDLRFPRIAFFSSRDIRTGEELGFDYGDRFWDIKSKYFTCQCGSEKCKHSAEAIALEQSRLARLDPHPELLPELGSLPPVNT
# Assay: qHTS Assay for Inhibitors of Histone Lysine Methyltransferase G9a; further: nearly all actives have a fitted effect of over 75% in size
# Conditions: G9a H3K9 monomethylation, AlphaScreen, 2 h; activity, negative = inhibition: at 59 µM (top of the series) unless noted
# Outline: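 Compounds were preincubated with 20 nM G9a for 15 min, after which biotinylated H3K9 peptide (500 nM) and SAM (20 uM) started a 2 h room-temperature reaction. Monomethylated product was quantified by antibody-based AlphaScreen chemiluminescence.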
# On the % scale 0 is the no-effect control and ±100 the full control effect; potency means the concentration at half of the fitted maximal effect; tags describe the fitted curve by direction and shape.
SMILES,"activity, negative = inhibition",Potency
COc1ccc(C(=O)OCc2c(F)cccc2Cl)cc1S(=O)(=O)N1CCOCC1,inactive: -11.3% [at 2.33 µM],–
CC(C)OC(=O)C(=O)NNc1ccccc1,–,"inconclusive: 44.7 µM [inhibitor, partial curve, poor fit]"
COc1ccccc1OCCNc1cc(N2CCOCC2)ccc1[N+](=O)[O-],–,active: 39.8 µM
COCCN(CC(=O)Nc1cccc(C)c1C)C(=O)c1cc2ccccc2cc1OC,–,"inconclusive: 1.41 µM [inhibitor, single point]"
COc1cc(C2CC(=O)Oc3ccc(C(C)(C)C)cc32)cc(OC)c1OC (stereo not drawn),inactive: 13% [at 102 µM],–
COc1cc(/C=N/n2c(C)nc3ccccc3c2=O)cc(OC)c1O,–,active: 12.6 µM
CCC1(c2ccccc2)NC(=O)N(CC(=O)NCc2ccncc2)C1=O (stereo not drawn),–,"inconclusive: 89.1 µM [inhibitor, single point]"
O=C(OCc1nc2ccccc2[n+]([O-])c1C(=O)c1ccccc1)c1ccco1,–,"inconclusive: 44.7 µM [inhibitor, partial curve, poor fit]"
Cc1ccc(C)c(-n2c(-c3csc(C)c3C)n[nH]c2=S)c1,–,"inconclusive: 1.78 µM [inhibitor, full curve, poor fit]"
COc1cccc(OC)c1C(=O)N1CCN(Cc2ccncc2)CC1,–,"inconclusive: 3.98 µM [inhibitor, full curve, poor fit]"
CCOC(=O)c1ccc(N2C(=O)CC(Nc3ccc(O)cc3)C2=O)cc1 (stereo not drawn),–,"inconclusive: 56.2 µM [inhibitor, partial curve, poor fit]"
COc1ccc(OC)c(C(=O)c2ccc(C(=O)O)cc2)c1,–,"inconclusive: 79.4 µM [inhibitor, single point]"
O=C(CSCC(=O)N1CCCCC1)Nc1nc(-c2ccccc2)c(-c2ccccc2)s1,–,"inconclusive: 56.2 µM [inhibitor, partial curve]"
COc1ccccc1NC(=O)CN1CCN(c2ccccc2)CC1,–,"inconclusive: 50.1 µM [inhibitor, partial curve]"
Cc1ccc2c(CN3CCCCC3CCO)cc(=O)oc2c1 (stereo not drawn),–,active: 25.1 µM
CCn1nc(C)c(CN2CCC(C(=O)Nc3cccc(-c4cccc(Cl)c4)c3)CC2)c1C,–,"inconclusive: 79.4 µM [inhibitor, single point]"
CCCCS(=O)(=O)N1C2=NC(C(=O)OC)=C(C(=O)OC)[C@@H]3N(C)c4ccc(OC)cc4[C@]23C[C@H]1C(=O)OC,–,"inconclusive: 15.8 µM [inhibitor, single point]"
CN(C1CCCCC1)S(=O)(=O)c1cc2c3c(c1)CCN3C(=O)CC2,inactive: -4.92% [at 102 µM],–
